According to the supplement of paper PMC3334620:
Whole data set: some 33,000 sequences, median “E-score (-0.5 to 0.5)” near -0.04, cut for the highest 2% near 0.36. The list shows a part of the results.

Biological target: T1, Hmlalpha2 (UniProt P0CY09)
T1 sequence: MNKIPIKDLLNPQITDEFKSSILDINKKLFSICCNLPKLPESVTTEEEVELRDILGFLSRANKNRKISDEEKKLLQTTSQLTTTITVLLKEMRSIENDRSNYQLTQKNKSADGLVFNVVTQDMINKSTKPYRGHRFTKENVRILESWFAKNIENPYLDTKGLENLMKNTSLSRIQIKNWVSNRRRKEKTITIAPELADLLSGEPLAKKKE
Test: PBM E-score (8-mer binding enrichment) (E-score (-0.5 to 0.5)); higher = stronger / more preferred TF binding; most listed sequences are background and not binding sites
Details: protein concentration: 200 nM; construct: GST-full length
Procedure: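 Universal 'all 10-mer' protein binding microarrays (Agilent AMADID 015681) probed with GST-tagged S. cerevisiae TFs (full-length or DBD) made by in vitro transcription/translation (PURExpress), about 100-200 nM. Bound TF was detected with fluorescent anti-GST. Each ungapped 8-mer (which stands for itself and its reverse complement) is scored by the PBM enrichment score (E-score), a modified Wilcoxon-Mann-Whitney statistic from -0.5 to +0.5, computed with the Universal PBM Analysis Suite. Scale: above 0.35 generally sequence-specific binding.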

| Sequence | PBM E-score |
| --- | --- |
| ACCCAAAT | 0.12 |
| AGACACTA | 0.0154 |
| GATAGATC | -0.0828 |
| CCAGTTGA | -0.069 |
| GAGAAAGC | -0.109 |
| AACCACGT | 0.152 |
| ACTCCTGA | -0.199 |
| TACCTGCA | 0.0424 |
| CACTCGGA | -0.0428 |
| ACCCCGCT | -0.312 |
| GCTGATTA | 0.248 |
| AGAAACGG | 0.0693 |
| GACGCGTA | 0.383 |
| GGTAACAA | 0.263 |
| CATACTAC | 0.173 |
| AGTACACG | 0.437 |
| AAAATTCT | 0.13 |
| GAAATCAC | 0.22 |
| CTGTTCCC | -0.194 |
| CGGGGATC | -0.228 |
| AAGTTGTC | 0.0427 |
| AGTCGCCG | -0.111 |
| CAGCTCGA | -0.254 |
| CACACGAC | 0.223 |
| AAGTTGTG | 0.205 |

| Sequence | PBM E-score |
| --- | --- |
| AACAAATA | 0.265 |
| AAAAACGT | 0.121 |
| AGGCTTAC | -0.0131 |
| CGGCATAC | -0.0723 |
| TCCCACGA | -0.168 |
| CCGGACTA | -0.162 |
| GCTAGGTA | -0.00681 |
| AGGGTAAG | -0.0858 |
| AGATGAAT | -0.0634 |
| TAAACGCA | 0.242 |
| CTCTTTAA | 0.0786 |
| ATAACTCA | 0.183 |
| GAACGTAC | 0.149 |
| GGGCATAA | -0.127 |
| ACTCTTGA | -0.0484 |
| TCAATTAA | 0.197 |
| GTGATCTA | 0.0484 |
| CATACGTA | 0.298 |
| ACCACATA | 0.126 |
| ACGCATCG | 0.135 |
| AGGCTGAT | -0.179 |
| CCAAAAAA | 0.168 |
| GCTCCCCC | -0.347 |
| GAACTCTA | 0.123 |
| CGTTGGGC | -0.0645 |

| Sequence | PBM E-score |
| --- | --- |
| GGAGCGAC | -0.153 |
| AGCCGCAC | -0.201 |
| CATCGTTC | -0.00732 |
| AACGTCAG | -0.0545 |
| AACGCTGT | 0.203 |
| ATTAGGGC | -0.0913 |
| AATATCCC | -0.213 |
| CAAATGCG | -0.014 |
| ATTGAACC | -0.0042 |
| GCAGTTAA | 0.0406 |
| ATTCCTTG | -0.0643 |
| TCCTACCA | -0.318 |
| GAAGGAAA | -0.0488 |
| TGAGGGCA | -0.284 |
| GGGTCAAC | -0.0284 |
| GGGTTCGA | -0.248 |
| ACATCTAC | 0.32 |
| CTCATTGC | 0.00494 |
| GAATTTCA | 0.0247 |
| CCCTCTCG | -0.297 |
| CCAGGCAC | -0.122 |
| TTCGGAAA | -0.091 |
| CAACCAAC | -0.0457 |
| AGCCTCCA | -0.398 |
| ATTAGATA | 0.0792 |

| Sequence | PBM E-score |
| --- | --- |
| CGCCCTTC | -0.155 |
| CCTGACGA | -0.0138 |
| CTAGCCTA | -0.207 |
| TAGCGTAA | 0.278 |
| AGGACGGG | -0.24 |
| AGTATTGC | 0.09 |
| CTCTGCGC | -0.278 |
| GGTACAAC | 0.0961 |
| CAGAGTTC | -0.172 |
| CCCGCTAG | -0.22 |
| CGCCTCAC | -0.0221 |
| GCTAAAAC | 0.1 |
| GGTGTCAA | 0.0378 |
| GAACTTCA | -0.133 |
| GAGATAGC | -0.178 |
| AGTGCCGA | -0.221 |
| ATCTTGAA | 0.194 |
| ACAGGGTC | -0.0681 |
| AGGGTACA | 0.0701 |
| CGTCTTAA | 0.121 |
| GTTTATGA | 0.0604 |
| CTTTTACC | 0.139 |
| CTCTGGCA | -0.338 |
| TTCTTCAA | 0.0864 |
| AATCAGCC | -0.18 |

| Sequence | PBM E-score |
| --- | --- |
| CTGTTGTC | 0.0827 |
| TAAGATAA | 0.00137 |
| CAGTGAGA | -0.154 |
| GACAAGAC | 0.0885 |
| CGCTTTTC | -0.135 |
| TCCAAACA | -0.0004 |
| CGAAGACG | -0.135 |
| AACGTTGT | 0.209 |
| CGATGTGA | 0.105 |
| ATACCTGG | -0.252 |
| AGCTTCTC | -0.186 |
| GAACTTAC | 0.205 |
| CACATACC | 0.151 |
| GGTGGCGA | -0.151 |
| CGGACAAA | -0.0269 |
| GTCACGAA | -0.0774 |
| AGTCGGTC | -0.248 |
| AATGTTAC | 0.269 |
| CGGTCTTA | -0.135 |
| AAAACGGC | 0.0572 |
| CGGAACAA | -0.0371 |
| CTGGACGA | -0.19 |
| AGCAAAAT | 0.0449 |
| CGTGGGCC | -0.085 |
| CCTAGGGC | -0.32 |

| Sequence | PBM E-score |
| --- | --- |
| ATGTGCAG | 0.0111 |
| CATGAATG | 0.189 |
| ATTATTAC | 0.317 |
| ATATCATG | 0.101 |
| CCTTCTAA | -0.0347 |
| CGAATACA | 0.39 |
| ATGCAGAA | 0.0982 |
| AGTTTTCC | 0.0296 |
| AGCTTAAC | 0.196 |
| GCAGTAAA | -0.0928 |
| GCTGGCTA | -0.246 |
| CCAGCGGG | -0.278 |
| ATATGTAG | 0.3 |
| AAAACACG | 0.426 |
| TGCGGCAA | -0.154 |
| GTAACCAC | 0.00247 |
| CATACTTC | 0.0601 |
| CTTCCTTC | -0.325 |
| AGAAAGAT | 0.078 |
| AAACGCTG | 0.177 |
| ATTAGGGA | -0.122 |
| CTATGCTC | -0.27 |
| AAGGTGTC | -0.0789 |
| ACGGTAGT | -0.178 |
| CGCAGGAG | -0.176 |

| Sequence | PBM E-score |
| --- | --- |
| AATAGGGG | -0.267 |
| GCCCACAC | -0.085 |
| AGGTACGG | -0.163 |
| ACAGGCGG | -0.0817 |
| ATGACATG | 0.363 |
| CAGAGTAG | -0.0538 |
| CGCTGATA | 0.0671 |
| ACGGCTGG | -0.289 |
| ACTGGCCT | -0.219 |
| TAAATATA | 0.234 |
| GCTTGGCA | -0.0531 |
| ACGACAAG | 0.0416 |
| GACAGTCC | -0.233 |
| GTCAAAAA | 0.0961 |
| CTTCGAGA | -0.125 |
| CCTAGTCA | -0.23 |
| AAAGTGAC | 0.0152 |
| GTATGGCA | 0.0125 |
| GTCAGCTA | -0.0726 |
| ATGCCACG | -0.07 |
| CAGTATCA | -0.157 |
| AGAGGCAC | -0.189 |
